# PubChem BioAssay AID504845 (National Center for Advancing Translational Sciences (NCATS), 2011)
# Screen size: about 390,000 compounds; about 150 (0.038%) were called active. Inconclusive results, whose numbers are uncertain, are shown with a selection of clear calls. The call rests on the fitted dose curve; in most records, active means well fitted inhibition curve with a large enough effect; inconclusive means small, poorly fitted or top-dose-only effect; inactive means no such curve, though single readings can be large or run the other way. Potencies beside an inconclusive call are fits to weak or partial responses and may not hold up.
# Biological target: Regulator of G-protein signaling 4 (Homo sapiens) (UniProt P49798)
# Experiment: Inhibitors of Regulator of G Protein Signaling (RGS) 4: qHTS; further: nearly all actives have a fitted effect of over 75% in size
# Conditions: Transcreener GDP fluorescence polarization, RGS4-accelerated GTP hydrolysis; series mostly up to 114 µM; activity change, negative = inhibition: at the top concentration
# Method in brief: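 MLSMR compounds (23 nl, pin-transferred) preincubated 10 min at room temperature with a 500nM (2x) first reagent, then RGS4 at 900nM (2x) plus Transcreener GDP mix added; fluorescence polarization (620/688 nm) read before and after 90 min at 30 °C.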
# On the % scale 0 is the no-effect control and ±100 the full control effect; potency means the concentration at half of the fitted maximal effect; tags describe the fitted curve by direction and shape.
# Chain of UniProt P49798 (P49798 whole entry, looked up): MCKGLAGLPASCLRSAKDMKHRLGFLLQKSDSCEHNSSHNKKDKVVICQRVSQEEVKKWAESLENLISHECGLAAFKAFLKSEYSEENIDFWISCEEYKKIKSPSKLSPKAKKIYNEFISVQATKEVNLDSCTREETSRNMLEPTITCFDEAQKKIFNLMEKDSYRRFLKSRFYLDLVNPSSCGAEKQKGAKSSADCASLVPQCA
SMILES,"activity change, negative = inhibition",Potency
Cc1ccc(S(=O)(=O)c2nc(S(C)(=O)=O)sc2N2CCCCC2C)cc1 (centres undefined),inactive: 10.3% [at 56.9 µM],–
Nc1ccc2c3c(cccc13)C(=O)NC2=O,inactive: -13.2% [at 56.9 µM],–
CCOc1ccc(NC(=O)CC2SC(=O)N(c3ccccc3)C2=O)cc1 (centres undefined),–,"inconclusive: 39.8 µM [inhibitor, partial curve, poor fit]"
CC12CN3CC(C)(CN(C1)C3c1ccc(Cl)cc1Cl)C2=O (centres undefined),–,"inconclusive: 100 µM [inhibitor, single point]"
Cc1ccc(C2Nc3ccccc3-c3nc4ccccc4n32)o1 (centres undefined),inactive: -0.281%,–
CC(C)N1C(=O)C2ON(c3ccccc3)C(c3cccs3)C2C1=O (centres undefined),–,"inconclusive: 89.1 µM [inhibitor, single point]"
CCOC(=O)C1CCCN(C(=O)c2ccc(-c3ccc([N+](=O)[O-])cc3)o2)C1 (centres undefined),–,"inconclusive: 50.1 µM [inhibitor, partial curve, poor fit]"
CCOc1ccc(C(=O)Nc2ccc(NC(=O)c3cccs3)cc2)cc1[N+](=O)[O-],inactive: 18.1%,–
O=C(/C=C/c1ccccc1)NC(=S)NNC(=O)c1cccnc1,–,"inconclusive: 79.4 µM [inhibitor, partial curve, poor fit]"
Cc1ccccc1NCc1ccccc1O,–,"inconclusive: 79.4 µM [inhibitor, single point]"
N=C1N(c2ccccc2)C(=S)C(=Nc2ccccc2)N1c1ccccc1,–,"inconclusive: 100 µM [inhibitor, partial curve, poor fit]"
CC(=C\C(=O)O)/C(=C/c1ccco1)C(=O)O,inactive: -22.9% [at 56.9 µM],–
O=C(Nc1ccc(N2CCOCC2)cc1)c1cccc2ccccc12,inactive: 8.05%,–
COCCn1nnnc1C(c1cc2cc(C)ccc2[nH]c1=O)N1CCN(C2CCCCC2)CC1 (centres undefined),inactive: -4.43%,–
COc1cc(C(=O)NCC2CCCCC2)ccc1OCc1c(C)noc1C,inactive: -12.2%,–
C#CCOCCOCCOCCNc1nc(N2CCN(C(=O)CCCCCCCCCCNC(=O)[C@H](CCCCN)n3cc(C)nn3)CC2)nc(N2CCN(C(=O)CCCCCCCCCCNC(=O)[C@H](CO)n3cc(CCCSC)nn3)CC2)n1,–,"inconclusive: 20 µM [inhibitor, full curve, poor fit]"
COc1ccc([N+](=O)[O-])cc1N(CC(=O)N1CCN(Cc2ccccc2)CC1)S(C)(=O)=O,–,"inconclusive: 28.2 µM [inhibitor, full curve, poor fit]"
O=C(N/N=C/c1cn(-c2cccs2)nc1-c1ccccc1)c1ccccc1O,inactive: -1.84%,–
O=C(CN1CCN(c2ccc(O)cc2)CC1)Nc1ccc2c(c1)OCCCO2,–,"inconclusive: 17.8 µM [inhibitor, full curve, poor fit]"
